We go through 57 compounds from article PMC4336329 (PLoS ONE, 2015).

Molecules are shown by their SMILES. Screen size: about 310,000 compounds; about 14,000 (4.5%) showed an effect of 50% or more. Effects have a minus sign here. The list shows a part of the results.
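Further: peak tail current of the secondary pulse compared with the same well before compound.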

Sequence of human ether-à-go-go-related gene (hERG) potassium channel (Q12809 whole entry, looked up): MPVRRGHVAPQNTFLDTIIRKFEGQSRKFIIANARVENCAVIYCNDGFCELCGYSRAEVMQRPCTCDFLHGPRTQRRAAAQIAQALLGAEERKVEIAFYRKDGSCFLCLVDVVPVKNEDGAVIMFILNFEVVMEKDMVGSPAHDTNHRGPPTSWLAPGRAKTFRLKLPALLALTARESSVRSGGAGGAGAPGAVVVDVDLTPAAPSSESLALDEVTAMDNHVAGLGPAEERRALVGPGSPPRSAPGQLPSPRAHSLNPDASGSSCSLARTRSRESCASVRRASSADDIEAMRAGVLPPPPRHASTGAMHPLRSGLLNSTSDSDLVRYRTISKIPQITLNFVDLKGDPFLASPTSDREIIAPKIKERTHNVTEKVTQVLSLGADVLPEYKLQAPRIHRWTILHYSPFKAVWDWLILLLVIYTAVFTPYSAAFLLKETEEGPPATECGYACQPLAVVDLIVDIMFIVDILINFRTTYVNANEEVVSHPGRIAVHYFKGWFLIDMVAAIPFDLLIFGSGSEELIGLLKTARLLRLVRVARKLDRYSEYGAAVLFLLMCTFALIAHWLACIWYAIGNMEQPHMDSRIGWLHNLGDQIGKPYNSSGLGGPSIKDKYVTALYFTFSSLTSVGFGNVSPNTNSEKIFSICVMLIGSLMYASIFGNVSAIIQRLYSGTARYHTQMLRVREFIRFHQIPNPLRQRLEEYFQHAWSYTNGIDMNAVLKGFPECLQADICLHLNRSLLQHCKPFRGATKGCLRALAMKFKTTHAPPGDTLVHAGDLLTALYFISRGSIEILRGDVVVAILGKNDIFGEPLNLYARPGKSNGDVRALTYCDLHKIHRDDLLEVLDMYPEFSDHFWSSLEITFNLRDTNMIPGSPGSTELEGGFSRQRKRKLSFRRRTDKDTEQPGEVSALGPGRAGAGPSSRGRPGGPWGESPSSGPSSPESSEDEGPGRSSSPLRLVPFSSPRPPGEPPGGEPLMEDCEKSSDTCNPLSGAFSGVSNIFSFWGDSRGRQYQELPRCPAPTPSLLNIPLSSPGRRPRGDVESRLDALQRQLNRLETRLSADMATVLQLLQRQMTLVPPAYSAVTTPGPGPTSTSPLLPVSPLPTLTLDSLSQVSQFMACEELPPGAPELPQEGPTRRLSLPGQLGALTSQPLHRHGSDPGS

For this test, the target named is human ether-à-go-go-related gene (hERG) potassium channel (human, UniProt Q12809). Description: primary screen, population patch clamp on CHO cells stably expressing hERG. As to the method:
Briefly, Chinese hamster ovary (CHO) cells stably expressing the hERG channel were dislodged from tissue culture flasks and dispensed into PPC plates. […] During the recording, background leak currents were estimated by a 100 ms step to -80 mV from an initial holding potential of -70 mV and subtracted from the subsequent current measurement. The campaign was conducted in two phases using slight differences in recording protocol. In the first phase, the initial voltage pulse used a 100 ms step to -30 mV from a holding potential of -70 mV, a 2 s conditioning step to +25 mV, and a 2 s test step to -30 mV. During the second phase of the screen, the potential during the conditioning step was raised to +45 mV. In both phases of the campaign, a secondary voltage pulse was applied using the same parameters as the second phase initial pulse. The initial and secondary pulses were applied in the absence of compound, and upon application of 1 μM and 10 μM test concentrations. […]
On to `Cc1ccc(C2C3=C(CCCC3=O)Nc3[nH]c(=S)[nH]c(=O)c32)cc1` (stereo not drawn), for which the “hERG current change (%, negative = inhibition) at 10uM” value stood at 12.4%.

In the case of `CC1CCCN(C(=O)c2ccc3c(c2)OCO3)C1` (stereo not drawn), the “hERG current change (%, negative = inhibition) at 10uM” value was found to be 3.08%. In the case of `CC(NC(=O)c1nn(C)c2c1CS(=O)(=O)c1ccccc1-2)c1ccccc1` (stereo not drawn) it was -13.1%.

Take `CC(C)NC(=O)C1CC(=O)N(C(C)c2ccccc2)C1` (stereo not drawn): the “hERG current change (%, negative = inhibition) at 10uM” value amounted to 9.9%.

On to `Cc1cc(C)nc(NC(=O)c2cccc(Cl)c2)n1`, for which the “hERG current change (%, negative = inhibition) at 10uM” value is -13.9%.

`Cn1c(O)c(C2=NNC(c3ccc(Cl)cc3)C2)c(=O)n(C)c1=O` (stereo not drawn): the “hERG current change (%, negative = inhibition) at 10uM” value was 2.21%. In the case of `COc1ccc(OC)c(NC(=O)COc2ccc(S(=O)(=O)N3CCCC3)cc2)c1` it was -23.4%; in that of `CC(=Nc1ccccc1N)c1c(O)n(C)c(=O)[nH]c1=O`, 21.4%. Turning to `O=C1CN(C(=O)c2cc([N+](=O)[O-])ccc2Cl)C(c2ccc(F)cc2)c2cc(F)ccc2N1` (stereo not drawn), the “hERG current change (%, negative = inhibition) at 10uM” value is -16.8%. In the case of `O=C(Nc1c(-c2ccccc2)nc2sccn12)c1ccccc1` it was -0.966%; in that of `CCOC(=O)Cc1csc(NC(=O)c2ccc(NC(C)=O)cc2)n1`, 7.36%. In the case of `O=C(c1nnc(-c2ccccc2)o1)C1CC1` it was 35.4%; in that of `Cc1cc(-n2c(C)cc(C(=O)COc3ccc4ccc(=O)oc4c3)c2C)no1`, 16.2%. In the case of `Cc1cc(C)c2c(N)c(C(=O)NN3CC(=O)N(c4ccccc4F)CC3=O)sc2n1` it was -10.8%; in that of `Cc1ccc(CN2CCN(Cc3cnc(N(C)C)s3)CC2CCO)o1` (stereo not drawn), 6.05%; in that of `CC(C)(C)c1ccc(C(=O)CSc2n[nH]c(=O)[nH]c2=O)cc1`, -1.43%.

`COCCNC(=S)Nc1cc2oc3ccccc3c2cc1OC`: the “hERG current change (%, negative = inhibition) at 10uM” value worked out at 6.49%. In the case of `CCC(=O)N1CCc2cc(S(=O)(=O)NC(C(=O)NC(C)c3ccccc3)C(C)C)ccc21` (stereo not drawn) it was 8.52%; in that of `COc1ccc(S(=O)(=O)N2CCN(Cc3cccc(F)c3)CC2)cc1`, -3.34%; in that of `COc1cccc(CNC(=O)C2Cc3cc(S(=O)(=O)N4CCCC4)ccc3N2C(C)=O)c1OC` (stereo not drawn), -2.93%. In the case of `Nc1ccc(-c2nc3c(Cl)c(N)ccc3[nH]2)cc1` it was 8.74%. `Cn1c(=O)[nH]c(=O)c2c1nc(N(CCO)Cc1ccccc1)n2CCCc1ccccc1`: the “hERG current change (%, negative = inhibition) at 10uM” value is given as -64.6%.

`O=C(NCCCO)C(=O)Nc1ccc2c(c1)N(S(=O)(=O)c1cccs1)CCC2`: the “hERG current change (%, negative = inhibition) at 10uM” value was -11.5%. In the case of `CCCCOC(=O)Nc1sc2nc(C)cc(C)c2c1-n1cccc1` it was 11.5%; in that of `COc1ccc(-c2nsc3c(N4CCCCC4C)ncnc23)cc1` (stereo not drawn), 33.3%; in that of `CCc1ccccc1NC(=O)c1cc(C)no1`, 16.1%. In the case of `Cc1ccccc1NC(=O)Nc1ccc2c(c1)CCC2` it was 24.4%; in that of `O=c1c2ccccc2nc2ccccn12`, 74.7%. In the case of `COc1ccc(Br)c(C(=O)Nc2cccc(S(=O)(=O)N3CCOCC3)c2)c1` it was -6.55%; in that of `COc1ccc(CNC(=O)c2c(O)c3ccccc3n(C)c2=O)cc1`, 0.519%; in that of `COc1cc(Cl)ccc1OCc1cc(C(=O)N(C)Cc2cn(C)nc2C)no1`, -36.3%. Turning to `N#C/C(=C\c1cc(Br)ccc1F)C(=O)NC1CC1`, the “hERG current change (%, negative = inhibition) at 10uM” value was -29%. In the case of `Cc1ccc([N+](=O)[O-])cc1NC(=O)CCCOc1ccccc1` it was 9.07%. In the case of `Cc1cccc2c1-c1sc(C(=O)Nc3ccccc3N3CCN(C)CC3)cc1CO2` it was -13.4%; in that of `CC(C)n1cnc2cc(NCc3nc4ccccc4n3C)ccc21`, -28.6%. In the case of `CC[C@@H](C)CN1C(=O)N[C@@H](c2ccccc2)C(C(C)=O)=C1C` it was -0.516%; in that of `CC(C)n1cc(/C=C2\NC(=O)N(c3cccc(Cl)c3)C2=O)c2ccccc21`, 7.73%; in that of `Cc1cccc(-n2c(/C=C/c3ccc([N+](=O)[O-])o3)nc3ccccc3c2=O)c1`, -40.3%.

On to `O=C(c1cnc2n(c1=O)CCS2)N1CCN(c2ccccc2F)CC1`, for which the “hERG current change (%, negative = inhibition) at 10uM” value was -5.65%. In the case of `CCC(C)NC(=O)CN(c1ccc2c(c1)OCO2)S(=O)(=O)c1c(C)n[nH]c1C` (stereo not drawn) it was 0.869%; in that of `NC(=O)C1=C[C@H](c2ccc3c(c2)OCO3)C[C@H](OCc2ccc(CO)cc2)O1`, -18.8%; in that of `O=C(Nc1ccc(-c2ccc(N3CCCCC3)nn2)cc1)c1ccco1`, 8.14%. In the case of `CC(C)(C)NC(=O)CSc1nnc(-c2ccccn2)n1-c1ccccc1` it was -9.24%. In the case of `COc1ccccc1NC(=O)C(=O)c1cn(CC(=O)N2CCCC2)c2ccccc12` it was 1.64%.

For the compound `Cc1cc(C)n(CCNC(=O)CCc2nnc(CCc3ccccc3)o2)n1`, the “hERG current change (%, negative = inhibition) at 10uM” value is 12.4%. In the case of `Cc1nc(NC(=O)c2ccccc2)sc1-c1csc(NCCc2ccccc2)n1`, the “hERG current change (%, negative = inhibition) at 10uM” value worked out at 12%. With `CCCOc1ccc(-c2c(C(=O)N/N=C/C3CCCCC3)nnn2-c2nonc2N)cc1`, the “hERG current change (%, negative = inhibition) at 10uM” value was 13.9%. In the case of `O=c1c2ccccc2ncn1-c1ccc(Cl)cc1[N+](=O)[O-]` it was -4.65%; in that of `CC(C)NC(=O)C(=O)NCCCOC(C)C`, 15.8%. In the case of `COc1ccc2c(=O)c(C(=O)NCc3ccccc3)c[nH]c2c1` it was 11.1%. Take `O=C(Oc1coc(CSc2ncccn2)cc1=O)c1cccc([N+](=O)[O-])c1`: the “hERG current change (%, negative = inhibition) at 10uM” value is given as -81.3%. In the case of `COC(CNC(=S)Nc1ccc([N+](=O)[O-])cc1)OC` it was -6.22%; in that of `O=C(O)C1CCC(CNS(=O)(=O)c2ccc(Br)cc2)CC1` (stereo not drawn), 16.9%; in that of `O=C(Cc1ccccc1)Nc1ccc(NC(=O)C2CCCCC2)nc1`, -48.5%. In the case of `O=C(O)c1cc(S(=O)(=O)N2CCOCC2)c[nH]1` it was -7.35%. In the case of `Cc1cccc(N2C(=O)C(Cc3ccccc3)NC2=S)c1` (stereo not drawn) it was 0.534%; in that of `CCOc1cc(NC(=S)NCCCOC)c(OCC)cc1NC(=O)c1ccco1`, -3.19%.
